# Laboratory results taken from publication PMC4336329 (PLoS ONE, 2015).
# In all, about 310,000 compounds went through this assay and about 14,000 (4.5%) showed an effect of 50% or more. Effects have a minus sign here. This is one part of the list.
# Molecular target: human ether-à-go-go-related gene (hERG) potassium channel (human, UniProt Q12809)
# Experiment: primary screen, population patch clamp on CHO cells stably expressing hERG
# 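Also: peak tail current of the secondary pulse compared with the same well before compound.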
# human ether-à-go-go-related gene (hERG) potassium channel, sequence (Q12809 whole entry, looked up): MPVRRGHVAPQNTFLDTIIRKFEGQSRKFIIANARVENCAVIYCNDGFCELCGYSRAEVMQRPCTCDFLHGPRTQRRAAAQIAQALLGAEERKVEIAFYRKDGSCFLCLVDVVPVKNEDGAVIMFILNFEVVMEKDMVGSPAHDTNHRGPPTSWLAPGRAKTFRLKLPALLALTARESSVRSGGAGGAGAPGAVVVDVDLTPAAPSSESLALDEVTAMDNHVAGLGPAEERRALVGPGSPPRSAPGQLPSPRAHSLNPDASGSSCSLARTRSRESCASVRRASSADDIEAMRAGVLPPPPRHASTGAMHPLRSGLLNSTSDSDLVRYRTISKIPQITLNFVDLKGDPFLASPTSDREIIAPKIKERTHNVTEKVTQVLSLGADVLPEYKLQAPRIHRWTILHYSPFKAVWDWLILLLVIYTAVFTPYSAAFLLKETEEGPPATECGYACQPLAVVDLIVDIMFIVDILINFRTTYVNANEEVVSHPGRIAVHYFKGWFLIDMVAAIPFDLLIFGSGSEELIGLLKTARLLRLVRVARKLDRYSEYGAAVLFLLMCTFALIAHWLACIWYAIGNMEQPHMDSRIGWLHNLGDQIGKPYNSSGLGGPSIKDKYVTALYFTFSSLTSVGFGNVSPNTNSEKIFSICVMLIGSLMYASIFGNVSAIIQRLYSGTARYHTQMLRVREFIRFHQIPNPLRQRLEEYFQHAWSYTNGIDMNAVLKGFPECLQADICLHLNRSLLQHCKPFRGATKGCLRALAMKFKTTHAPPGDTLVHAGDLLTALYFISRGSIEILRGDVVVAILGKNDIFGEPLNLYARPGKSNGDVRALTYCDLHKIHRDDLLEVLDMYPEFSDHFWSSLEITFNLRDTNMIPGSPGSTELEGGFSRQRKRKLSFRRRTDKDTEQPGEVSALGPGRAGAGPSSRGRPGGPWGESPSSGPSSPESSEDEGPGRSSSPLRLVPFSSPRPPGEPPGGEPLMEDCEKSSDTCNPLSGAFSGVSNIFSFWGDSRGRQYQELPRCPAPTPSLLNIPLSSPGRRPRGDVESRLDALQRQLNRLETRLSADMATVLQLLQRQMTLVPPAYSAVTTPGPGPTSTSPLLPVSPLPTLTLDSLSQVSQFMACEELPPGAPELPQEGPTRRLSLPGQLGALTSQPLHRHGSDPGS
row,SMILES,"hERG current change (%, negative = inhibition) at 10uM [%]"
1,Cc1ccc(S(=O)(=O)N(CC2CO2)c2cccc([N+](=O)[O-])c2)cc1 (stereo not shown),11.9
2,COc1ccc(CCNCC(C)c2ccccc2)cc1.O=C(O)C(=O)O (stereo not shown),-11.1
3,c1ccc(-c2noc(-c3cccnc3)n2)nc1,7.02
4,COCCSc1nnc(NC(=O)c2ccc3c(c2)OCO3)s1,6.82
5,Cc1ccc(S(=O)(=O)N2CN(CC3CCCO3)c3nc4ccccc4nc32)cc1 (stereo not shown),-8.98
6,CCOC(=O)N/N=C1\CC(C)CC(C)(C)C1 (stereo not shown),12.8
7,Cc1c[nH]c(=O)c([N+](=O)[O-])c1,19.9
8,CCOC(=O)c1c(NC(=O)CN2C(=O)NC(C)(c3ccc(Cl)cc3)C2=O)sc(C(=O)NC)c1C (stereo not shown),-6.23
9,Cc1nn(-c2ccccc2)c(Cl)c1/C=N/Nc1nncc(=O)[nH]1,6.76
10,O=C(NCCCN1CCOCC1)c1ccc2c(c1)N(Cc1ccccc1)CCS2,-33.5
11,Cc1ccc2[nH]c(C(=O)N3CCCCC3)cc2c1,-1.56
12,O=C(O)CC(Cc1ccccc1)(C(=O)O)c1ccccc1 (stereo not shown),12.6
13,COc1cccc(CNC(=O)Cn2ccc3cc(S(=O)(=O)N4CCCC4)ccc32)c1,2.51
14,O=C(N/N=C/c1ccco1)c1cccs1,-1.95
15,CCOC(=O)CCCNc1ccc([N+](=O)[O-])cc1[N+](=O)[O-],-13.3
16,Cc1cc(C)c(S(=O)(=O)Nc2nccs2)c(C)c1,0.875
17,Cc1ccc(C)c(OCC(=O)Nn2c(C)nc3ccccc3c2=O)c1,11.4
18,Cc1ccnc(NS(=O)(=O)c2ccc(NC(=O)Cc3ccc(Br)cc3)cc2)n1,23.4
19,CCCCn1c(=O)[nH]c(=O)c2c1nc(-c1ccc(C(F)(F)F)cc1)n2C,3.8
20,Cc1cccc(C(=O)NNC(=O)c2ccccc2[N+](=O)[O-])c1,-1.59

row,SMILES,"hERG current change (%, negative = inhibition) at 10uM [%]"
1,CNC(=S)N1CCn2cccc2C1c1cc(OC)c(OC)c(OC)c1 (stereo not shown),15.3
2,CCCOc1ccc(-c2nc(N3CCN(CC)CC3)c3ccccc3n2)cc1,-17.3
3,CCCC(=O)N(CCN1CCOCC1)c1nc2c(OC)ccc(C)c2s1.Cl,-37.7
4,Cc1ccnn2cc3c(=O)n(C)c(=O)n(C)c3c12,16.8
5,Cc1cc(C)cc(NC(=O)CCNC(=O)c2ccc([N+](=O)[O-])cc2)c1,-29.4
6,CCOc1ccc2nc(N3CCCC(C(=O)NCCCN4CCCCC4)C3)sc2c1 (stereo not shown),-64.8
7,CC(=O)OCc1cc(=O)n(C)c(=O)n1C,9.67
8,O=C(CCCN1C(=O)c2ccccc2C1=O)NCC1CCCO1 (stereo not shown),12.2
9,CCOC(=O)[C@@H]1[C@H]2COc3ccc(Br)cc3[C@@H]2N2C(=O)N(c3ccccc3)C(=O)[C@]12C,-3.09
10,COc1ccc(C(CCN2CCCC2)c2c(O)cc(OC)cc2OC)cc1 (stereo not shown),-61.2
11,O=C(COc1cccc(-n2cnnn2)c1)NC1CCCCC1,-0.742
12,COc1ccc(CCn2c(-n3nc(C)cc3C)nc3c2c(=O)[nH]c(=O)n3C)cc1,3.66
13,Cc1cccc2sc(NC(=O)c3cc(S(=O)(=O)N(C)C)ccc3N3CCCC3)nc12,12
14,Nc1ccccc1Oc1ncc(C(F)(F)F)cc1Cl,13.9
15,O=C(COC(=O)CC1c2ccccc2CCN1S(=O)(=O)c1ccccc1)Nc1ccccc1 (stereo not shown),-10.2
16,COc1cc(NC(=O)C(Cc2ccccc2)n2cccc2)cc(OC)c1 (stereo not shown),-17.4
17,O=C(NC1CC2CCCC(C1)N2C(=S)NCCc1ccccc1)C1CC1 (stereo not shown),5.33
18,COc1ccc(CN2C(=O)COc3ccccc32)cc1,12
19,Cc1ccc(NC(=O)CCCc2nc3ccccc3c(=O)[nH]2)c(Cl)c1,5.16
20,Cc1cc(OCCCC(=O)NNC(=O)c2ccncc2)ccc1Cl,-13.4

row,SMILES,"hERG current change (%, negative = inhibition) at 10uM [%]"
1,Cn1c(=O)[nH]c(=O)c2c1nc(SCC(=O)O)n2CCCc1ccccc1,3.89
2,COc1ccc(NC(=O)CN(C)C(=O)/C=C/c2ccc(S(=O)(=O)N3CCCCCC3)cc2)cc1,7.14
3,O=C(N1CCCC1)C12CCC3CC(CC(C3)C1)C2,-10.9
4,O=C(Nc1ccc(-c2nc3ccccc3[nH]2)cc1)c1ccco1,-18.4
5,CC1CCc2c(C(=O)NCCCN3CCOCC3)csc2C1 (stereo not shown),-8.95
6,CC1CC(C)CN(CC(O)COC2CC(C)CC(C)(C)C2)C1.Cl (stereo not shown),-32.3
7,CC(/C=C/c1ccco1)=N/NC(=O)C1COc2ccccc2O1 (stereo not shown),-1.45
8,O=C(CSc1nc2ccccc2n1CC(=O)N1CCOCC1)N1CCCC1,14.7
9,CN(CC(=O)Nc1ccc(F)cc1)C(=O)COC(=O)c1cccc(N(C)C)c1,-3.9
10,Cc1cnc(NC(=O)COc2ccccc2Cl)s1,1.15
11,N#CCC(=O)Nc1ccc(C(=O)NNC(=O)CCN2CCN(c3ccccc3)CC2)cc1,-5.56
12,CCOc1ccc(S(=O)(=O)N2CCCCC2)cc1NC(=O)CN1C(=O)NC(C)(c2ccc(C)cc2)C1=O (stereo not shown),-10.4
13,CCCN(CCC(=O)Nc1ccccc1F)CC1CC1,-0.259
14,COCCn1c(=S)[nH]c2cc(C(=O)NCC3CCCO3)ccc2c1=O (stereo not shown),-8.8
15,CCCCn1c(N)c(N(CCOC)C(=O)COC(=O)c2cc(CC)c(C)s2)c(=O)[nH]c1=O,22
16,CCOC(=O)c1ccccc1NC(=O)CSc1ccccc1,-14.7
17,Cc1ccccc1N1C(=O)C2CCCN2C1=S (stereo not shown),12.6
18,COc1cccc(C(=O)Nc2cccc(-c3ccccc3)c2)c1,12.8
